First the molecules themselves.
B1: TEV protease; numbered along this chain (parent)
chain: MGESLFKGPRDYNPISSSICHLTNESDGHTTSLYGIGFGPFIITNKHLFRRNNGTLVVQSLHGVFKVKDTTTLQQHLVDGRDMIIIRMPKDFPPFPQKLKFREPQREERICLVTTNFQTKSMSSMVSDTSCTFPSGDGIFWKHWIQTKDGQCGSPLVSTRDGFIVGIHSASNFTNTNNYFTSVPKNFMELLTNQEAQQWVSGWRLNADSVLWGGHKVFMVKPEEPFQPVKEATQL

The variants in this assay derive from B1. Put plainly: raw area under fraction-flipped curve 0-4 h after induction (AUC4h, not background-subtracted), DNA-recorder readout of cleavage of the substrate (dimensionless); higher = more cleavage of the substrate by the protease variant. To be noted: temperature: 34 °C; time window: 0-4 h after rhamnose induction. The procedure: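 In vivo DNA recorder in E. coli TOP10(DE3) ΔrhaA at 34 °C. Each TEVp single-site mutant (parent TEVp 0) is paired with a single-site variant of the 7-mer TEVs (canonical ENLYFQ|S). The substrate sits between flexible linkers in a Bxb1-sfGFP-TEVs-SsrA fusion, so cleavage stabilises Bxb1 and speeds flipping of a recombination array, read by NGS. The value is the raw area under the fraction-flipped curve over 0-4 h after rhamnose induction (AUC4h), with ≥20 reads per time point. It is not background-subtracted; inactive controls average about 0.047.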

Some of the results follow. Sequences were assembled here from the parent chain. Values near 0.05 are background.
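Further: Bxb1 expression induced with 0.2% (w/v) L-rhamnose at OD600 near 0.5, cultures sampled hourly, flipped fraction per protease–substrate barcode pair counted by paired-end Illumina sequencing.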

Take MGESLFKGPRDYNPISSSICHLTNESDGHTTSLYWIGFGPFIITNKHLFRRNNGTLVVQSLHGVFKVKDTTTLQQHLVDGRDMIIIRMPKDFPPFPQKLKFREPQREERICLVTTNFQTKSMSSMVSDTSCTFPSGDGIFWKHWIQTKDGQCGSPLVSTRDGFIVGIHSASNFTNTNNYFTSVPKNFMELLTNQEAQQWVSGWRLNADSVLWGGHKVFMVKPEEPFQPVKEATQL [G35W]: the “area with substrate CNLYFQS” value was 0.0486, the “area with substrate DNLYFQS” value worked out at 0.0555, the “area with substrate FNLYFQS” value came to 0.048 and the “area with substrate HNLYFQS” value is 0.0449. For the same variant, the “area with substrate INLYFQS” value amounted to 0.0542, the “area with substrate LNLYFQS” value was found to be 0.0496, the “area with substrate PNLYFQS” value stood at 0.0513 and the “area with substrate TNLYFQS” value was determined as 0.0552. The “area with substrate VNLYFQS” value came to 0.0228, the “area with substrate WNLYFQS” value is 0.0477 and the “area with substrate YNLYFQS” value was found to be 0.0501.
Turning to MGESLFKGPRDYNPISSSICHLTNESDGHQTSLYGIGFGPFIITNKHLFRRNNGTLVVQSLHGVFKVKDTTTLQQHLVDGRDMIIIRMPKDFPPFPQKLKFREPQREERICLVTTNFQTKSMSSMVSDTSCTFPSGDGIFWKHWIQTKDGQCGSPLVSTRDGFIVGIHSASNFTNTNNYFTSVPKNFMELLTNQEAQQWVSGWRLNADSVLWGGHKVFMVKPEEPFQPVKEATQL [T30Q], the “area with substrate CNLYFQS” value worked out at 0.0785, the “area with substrate DNLYFQS” value worked out at 0.0727, the “area with substrate FNLYFQS” value stood at 0.0575 and the “area with substrate GNLYFQS” value stood at 0.0691. For the same variant, the “area with substrate HNLYFQS” value turned out to be 0.0591, the “area with substrate INLYFQS” value is 0.0651, the “area with substrate KNLYFQS” value is 0.0671 and the “area with substrate LNLYFQS” value is 0.0668. Also, the “area with substrate NNLYFQS” value worked out at 0.0671, the “area with substrate PNLYFQS” value was found to be 0.0612, the “area with substrate SNLYFQS” value was 0.0678 and the “area with substrate VNLYFQS” value amounted to 0.0713. The “area with substrate WNLYFQS” value stood at 0.0572 and the “area with substrate YNLYFQS” value is 0.0664.
In the case of MGESLFKGPRDYNPISSSICHLTNESDGHTTSLYGIGFNPFIITNKHLFRRNNGTLVVQSLHGVFKVKDTTTLQQHLVDGRDMIIIRMPKDFPPFPQKLKFREPQREERICLVTTNFQTKSMSSMVSDTSCTFPSGDGIFWKHWIQTKDGQCGSPLVSTRDGFIVGIHSASNFTNTNNYFTSVPKNFMELLTNQEAQQWVSGWRLNADSVLWGGHKVFMVKPEEPFQPVKEATQL [G39N], the “area with substrate CNLYFQS” value stood at 0.0436, the “area with substrate DNLYFQS” value came out at 0.0451, the “area with substrate FNLYFQS” value was 0.047 and the “area with substrate GNLYFQS” value was 0.0402. The “area with substrate INLYFQS” value is 0.0316, the “area with substrate KNLYFQS” value stood at 0.0289, the “area with substrate MNLYFQS” value was 0.0439 and the “area with substrate PNLYFQS” value worked out at 0.0484. For the same variant, the “area with substrate SNLYFQS” value turned out to be 0.0613, the “area with substrate TNLYFQS” value came to 0.0293, the “area with substrate WNLYFQS” value was determined as 0.0381 and the “area with substrate YNLYFQS” value was 0.0277.
In the case of MGESLFKGPRDYNPISSSICHLTNESDGHTTSLYGIGFCPFIITNKHLFRRNNGTLVVQSLHGVFKVKDTTTLQQHLVDGRDMIIIRMPKDFPPFPQKLKFREPQREERICLVTTNFQTKSMSSMVSDTSCTFPSGDGIFWKHWIQTKDGQCGSPLVSTRDGFIVGIHSASNFTNTNNYFTSVPKNFMELLTNQEAQQWVSGWRLNADSVLWGGHKVFMVKPEEPFQPVKEATQL [G39C], the “area with substrate CNLYFQS” value was found to be 0.0505, the “area with substrate DNLYFQS” value is 0.0534, the “area with substrate FNLYFQS” value came out at 0.0399 and the “area with substrate GNLYFQS” value came out at 0.0417. Moreover, the “area with substrate HNLYFQS” value was 0.0532, the “area with substrate INLYFQS” value was 0.0486, the “area with substrate LNLYFQS” value is 0.0463 and the “area with substrate MNLYFQS” value was 0.0461. The “area with substrate NNLYFQS” value came out at 0.0358, the “area with substrate PNLYFQS” value stood at 0.0407, the “area with substrate QNLYFQS” value amounted to 0.0052 and the “area with substrate TNLYFQS” value was 0.051. Also, the “area with substrate VNLYFQS” value was 0.0355 and the “area with substrate WNLYFQS” value came out at 0.0369.
With MGESLFKGPRDYNPISSSICHLTNESDGHTTSLYGIGFHPFIITNKHLFRRNNGTLVVQSLHGVFKVKDTTTLQQHLVDGRDMIIIRMPKDFPPFPQKLKFREPQREERICLVTTNFQTKSMSSMVSDTSCTFPSGDGIFWKHWIQTKDGQCGSPLVSTRDGFIVGIHSASNFTNTNNYFTSVPKNFMELLTNQEAQQWVSGWRLNADSVLWGGHKVFMVKPEEPFQPVKEATQL [G39H], the “area with substrate CNLYFQS” value was 0.0471, the “area with substrate DNLYFQS” value was 0.0479, the “area with substrate FNLYFQS” value was found to be 0.0418 and the “area with substrate GNLYFQS” value came out at 0.0476. Moreover, the “area with substrate HNLYFQS” value is 0.0477, the “area with substrate KNLYFQS” value came to 0.0408, the “area with substrate LNLYFQS” value is 0.0456 and the “area with substrate MNLYFQS” value turned out to be 0.0501. In addition, the “area with substrate NNLYFQS” value was 0.042, the “area with substrate PNLYFQS” value worked out at 0.0379, the “area with substrate SNLYFQS” value came out at 0.0482 and the “area with substrate TNLYFQS” value turned out to be 0.0453. For the same variant, the “area with substrate WNLYFQS” value stood at 0.0398 and the “area with substrate YNLYFQS” value was 0.0495.
Take MGESLFKGPRDYNPISSSICHLTNESDGHTTSLYGFGFGPFIITNKHLFRRNNGTLVVQSLHGVFKVKDTTTLQQHLVDGRDMIIIRMPKDFPPFPQKLKFREPQREERICLVTTNFQTKSMSSMVSDTSCTFPSGDGIFWKHWIQTKDGQCGSPLVSTRDGFIVGIHSASNFTNTNNYFTSVPKNFMELLTNQEAQQWVSGWRLNADSVLWGGHKVFMVKPEEPFQPVKEATQL [I36F]: the “area with substrate CNLYFQS” value was 0.0514, the “area with substrate DNLYFQS” value worked out at 0.0673, the “area with substrate FNLYFQS” value came out at 0.0641 and the “area with substrate HNLYFQS” value is 0.0562. Moreover, the “area with substrate KNLYFQS” value turned out to be 0.0625, the “area with substrate PNLYFQS” value amounted to 0.0606, the “area with substrate QNLYFQS” value was 0.0491 and the “area with substrate RNLYFQS” value is 0.0682. Besides, the “area with substrate TNLYFQS” value is 0.0632, the “area with substrate VNLYFQS” value is 0.055, the “area with substrate WNLYFQS” value was 0.0545 and the “area with substrate YNLYFQS” value is 0.0578.
With MGESLFKGPRDYNPISSSICHLTNESDGHTTSLYGQGFGPFIITNKHLFRRNNGTLVVQSLHGVFKVKDTTTLQQHLVDGRDMIIIRMPKDFPPFPQKLKFREPQREERICLVTTNFQTKSMSSMVSDTSCTFPSGDGIFWKHWIQTKDGQCGSPLVSTRDGFIVGIHSASNFTNTNNYFTSVPKNFMELLTNQEAQQWVSGWRLNADSVLWGGHKVFMVKPEEPFQPVKEATQL [I36Q], the “area with substrate CNLYFQS” value is 0.0363, the “area with substrate DNLYFQS” value turned out to be 0.0541, the “area with substrate GNLYFQS” value was 0.0422 and the “area with substrate INLYFQS” value was 0.0303. In addition, the “area with substrate KNLYFQS” value was 0.0496, the “area with substrate LNLYFQS” value came to 0.0549, the “area with substrate MNLYFQS” value was determined as 0.068 and the “area with substrate NNLYFQS” value was found to be 0.0376. In addition, the “area with substrate PNLYFQS” value turned out to be 0.0638, the “area with substrate RNLYFQS” value came to 0.05, the “area with substrate VNLYFQS” value came to 0.066 and the “area with substrate WNLYFQS” value is 0.0538. The “area with substrate YNLYFQS” value worked out at 0.0476.
In the case of MGESLFKGPRDYNPISSSICHLTNESDGHTTSWYGIGFGPFIITNKHLFRRNNGTLVVQSLHGVFKVKDTTTLQQHLVDGRDMIIIRMPKDFPPFPQKLKFREPQREERICLVTTNFQTKSMSSMVSDTSCTFPSGDGIFWKHWIQTKDGQCGSPLVSTRDGFIVGIHSASNFTNTNNYFTSVPKNFMELLTNQEAQQWVSGWRLNADSVLWGGHKVFMVKPEEPFQPVKEATQL [L33W], the “area with substrate CNLYFQS” value came out at 0.0588, the “area with substrate DNLYFQS” value turned out to be 0.0505, the “area with substrate FNLYFQS” value is 0.0496 and the “area with substrate GNLYFQS” value worked out at 0.0794. For the same variant, the “area with substrate HNLYFQS” value is 0.0554, the “area with substrate INLYFQS” value came to 0.0578, the “area with substrate KNLYFQS” value turned out to be 0.0559 and the “area with substrate LNLYFQS” value came to 0.0605. Besides, the “area with substrate MNLYFQS” value is 0.0638, the “area with substrate NNLYFQS” value is 0.0635, the “area with substrate PNLYFQS” value is 0.0606 and the “area with substrate SNLYFQS” value was 0.0538. The “area with substrate TNLYFQS” value is 0.0374, the “area with substrate VNLYFQS” value came out at 0.049, the “area with substrate WNLYFQS” value is 0.057 and the “area with substrate YNLYFQS” value came to 0.0525.
